Assay results taken from the supplement of paper PMC10600219.
Where a name gives a salt, the structure may show the parent alone. Whole data set: some 2,800 compounds, median “cell viability relative to vehicle” near 0.98, cut for the lowest 2% near 0.45. The list shows a part of the results.

What follows are molecules tested on NCI-H2228 alectinib-DTP (assay: cell viability relative to vehicle (fraction of vehicle); NCI-H2228 is an ALK-positive lung cancer line and DTP means drug-tolerant persister; higher = less growth inhibition). Details: 100 nM; treatment time 6 days.
Outline: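 Each value is viability relative to vehicle-treated cells, measured as ATP with the CellTiter-Glo 3D Cell Viability Assay. Parental NCI-H2228 cells and drug-tolerant persisters (1000 nM targeted drug, 13 days) in 384-well plates received the 3114-agent TargetMol anti-cancer compound library at 100 nM, or DMSO, and were read 6 days later.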
Work on `CC(C)CC(N)=O` [Isovaleramide] yielded a cell viability of 1.12. Molecule `COc1c2occc2cc2ccc(=O)oc12` [8-Methoxypsoralen] has a cell viability of 0.987. `COc1ccc2c(OCc3nnc4ccc(-c5ccccc5)nn34)ccnc2c1` was tested, and the cell viability was 1.05. Molecule `Cn1c(=O)c2c(ncn2CC(=O)Nc2ccc(-c3ccccc3)nn2)n(C)c1=O` has a cell viability of 1.15. Molecule `N=C(NCCCCCCNC(=N)NC(=N)Nc1ccc(Cl)cc1)NC(=N)Nc1ccc(Cl)cc1` [Chlorhexidine hydrochloride] has a cell viability of 1.02. `N=C(NCCCCCCNC(=N)NC(=N)Nc1ccc(Cl)cc1)NC(=N)Nc1ccc(Cl)cc1` [Chlorhexidine] gave a cell viability of 1.17. Molecule `c1ccc(NCc2ccc(CNc3ccccn3)cc2)nc1` has a cell viability of 0.801. Molecule `CN1CCN(Cc2ccc(Nc3ncc(Cl)c(Nc4ccccc4S(=O)(=O)N(C)C)n3)cc2)CC1` has a cell viability of 0.122. `COC(=O)c1ccc2c(c1)nc(NC(=O)c1ccccc1)n2CCCc1ccccc1` gave a cell viability of 1.07. `O=C(O)Cc1ccc(-c2ccccc2)cc1` [4-Biphenylacetic acid] was tested, and the cell viability was 0.987. `COc1cc(N2CCC(N3CCN(C)CC3)CC2)ccc1Nc1ncc(Cl)c(-c2c[nH]c3ccccc23)n1` was tested, and the cell viability was 0.893. Molecule `O=C(NC[C@H]1CN(c2ccc(N3CCOCC3=O)cc2)C(=O)O1)c1ccc(Cl)s1` [Rivaroxaban] has a cell viability of 1.05. Molecule `COc1ccc(-c2ccc3c(N4CCOC[C@@H]4C)nc(N4CCOC[C@@H]4C)nc3n2)cc1CO` has a cell viability of 0.377. For `O=C1C[C@@H](c2ccccc2)Oc2cc(O)cc(O)c21` [Pinocembrin], the cell viability was 0.964. Work on `COc1c(C)c(C(=O)c2ccc(N)c(C(=O)O)c2)n2ccccc12` yielded a cell viability of 1.01. Molecule `COc1nccc(-c2c(-c3ccc(F)cc3)ncn2C2CCC(O)CC2)n1` (centres undefined) has a cell viability of 0.882. `CN[C@@H](C)C(=O)N[C@H](C(=O)N1CCC[C@H]1c1nc(C(=O)c2ccc(F)cc2)cs1)C1CCCCC1` showed a cell viability of 1.09. In the case of `CCCc1cc(C)[nH]c(=O)c1CNC(=O)c1cc(-c2ccc(N3CCN(C(C)C)CC3)nc2)cc2c1cnn2C(C)C`, the cell viability is reported as 1.13. `CCN(CC)CCOC(=O)C1(C2CCCCC2)CCCCC1` [Dicyclomine hydrochloride] showed a cell viability of 1.07. Work on `O=c1cc(-c2ccccc2)oc2c(O)c(O)ccc12` [7,8-Dihydroxyflavone] yielded a cell viability of 0.885. Molecule `Oc1cc(O)c2c(c1)O[C@H](c1ccc(O)c(O)c1)[C@@H](O)C2` [Cianidanol] has a cell viability of 0.938. In the case of `NC(=O)c1ccc(N(C(N)=O)c2c(F)cccc2F)nc1-c1ccc(F)cc1F`, the cell viability is reported as 0.981. `N=C1NC(=O)/C(=C/c2ccc(O)cc2)S1` [Mirin] gave a cell viability of 1.05. Work on `Nc1c(CC(=O)O)cccc1C(=O)c1ccccc1` [Amfenac Sodium Monohydrate] yielded a cell viability of 0.938. Work on `C=C1[C@H](OC(=O)/C=C(\C)CC)C[C@@H](C(C)C)[C@@H]2[C@@H]([C@@H](C)OC(C)=O)C(=O)C[C@@H]12` [Tussilagone] yielded a cell viability of 1.07. With `COc1cc(N2CCOCC2)ccc1Nc1ncc(Cl)c(Nc2ccccc2NS(C)(=O)=O)n1` the cell viability was 0.914. Work on `COc1ccc([C@@H]2CC(=O)c3c(O)cc(O)cc3O2)cc1O` [Hesperetin] yielded a cell viability of 1.01. `C[C@@H]1C(=O)O[C@H]2C[C@@]34[C@H]5C[C@@H](C(C)(C)C)[C@]36[C@@H](OC(=O)[C@@H]6O)O[C@@]4(C(=O)O5)[C@]21O` [Ginkgolide A] gave a cell viability of 0.973. `CC1=C(C(=O)OC2CCCCC2)C(c2ccc([N+](=O)[O-])cc2)C2=C(CC(C)(C)CC2=O)N1` (centres undefined) gave a cell viability of 0.995. `CC(c1cc2ccccc2s1)N(O)C(N)=O` (centres undefined) [Zileuton] showed a cell viability of 1.1. In the case of `CC(=O)Oc1cc(C(C)C)c(OCCN(C)C)cc1C` [Moxisylyte hydrochloride], the cell viability is reported as 1.19. `O=C(O)c1cc(O)c2c(c1)[C@H]([C@H]1c3cc(C(=O)O)cc(O)c3C(=O)c3c(O[C@@H]4O[C@H](CO)[C@@H](O)[C@H](O)[C@H]4O)cccc31)c1cccc(O[C@@H]3O[C@H](CO)[C@@H](O)[C@H](O)[C@H]3O)c1C2=O` [Sennoside A] showed a cell viability of 1.01. `Nc1ncnc2c1ncn2[C@@H]1O[C@H](COP(=O)(O)O)[C@@H](O)[C@H]1O` [Adenosine 5'-monophosphate] gave a cell viability of 0.937. `NC(=O)c1ncn([C@@H]2O[C@H](CO)[C@@H](O)[C@H]2O)c1N` [AICAR (Acadesine)] was tested, and the cell viability was 0.895. With `CC1=C(/C=C/C(C)=C/C=C/C(C)=C/C(=O)Nc2ccc(O)cc2)C(C)(C)CCC1` [Fenretinide] the cell viability was 0.792. `C/C(=N\NC(=S)N1CCC1)c1ccccn1` showed a cell viability of 0.362. Work on `O=c1[nH]c(=O)n([C@H]2C[C@H](O)[C@@H](CO)O2)cc1F` [Floxuridine] yielded a cell viability of 0.798. For `O=C1c2cccc(O)c2C(=O)c2c(O)cc(CO)cc21` [Aloe-emodin], the cell viability was 0.821. Work on `CN(C)CCC=C1c2ccccc2C=Cc2ccccc21` [Cyclobenzaprine hydrochloride] yielded a cell viability of 1.04. In the case of `CN(C)CCc1c[nH]c2ccc(C[C@H]3COC(=O)N3)cc12` [Zolmitriptan], the cell viability is reported as 1.07. In the case of `O=C(NC1CCOCC1)c1ccc(-c2cc(-c3c[nH]nc3-c3ccccn3)ccn2)cc1`, the cell viability is reported as 0.974. Molecule `O=C1C(=O)N(Cc2ccc(Cl)c(Cl)c2)c2ccccc21` [Apoptosis Activator 2] has a cell viability of 1.05. `NS(=O)(=O)c1cc2c(cc1Cl)NCNS2(=O)=O` [Hydrochlorothiazide] gave a cell viability of 0.962. `C[N+]1(C)CCC(=C(c2ccccc2)c2ccccc2)CC1` [Diphemanil mesylate] was tested, and the cell viability was 0.955. `COc1cc(/C=C/C(=O)O)ccc1O` [Ferulic Acid] gave a cell viability of 1.25. `COc1cc(/C=C/C(=O)O)ccc1O` [Sodium ferulic] was tested, and the cell viability was 1.21. Work on `CC(C)OC(=O)CCC/C=C\C[C@@H]1[C@@H](CC[C@@H](O)CCc2ccccc2)[C@H](O)C[C@@H]1O` [Latanoprost] yielded a cell viability of 1.08. Work on `CC(C)(F)C[C@H](N[C@@H](c1ccc(-c2ccc(S(C)(=O)=O)cc2)cc1)C(F)(F)F)C(=O)NC1(C#N)CC1` [Odanacatib] yielded a cell viability of 0.948. `COc1c(O[C@@H]2O[C@H](C(=O)O)[C@@H](O)[C@H](O)[C@H]2O)cc(O)c2c(=O)cc(-c3ccccc3)oc12` [Wogonoside] showed a cell viability of 0.92. For `C[C@@H]1COCCN1c1cc(C2([S@](C)(=N)=O)CC2)nc(-c2cc[nH]c3nccc2-3)n1`, the cell viability was 1.04. For `COc1cc(C)c(/C=C/C(C)=C/C=C/C(C)=C/C(=O)O)c(C)c1C` [Acitretin], the cell viability was 0.798. Work on `C[n+]1cccc(C(=O)[O-])c1` [Trigonelline hydrochloride] yielded a cell viability of 0.954. With `CCN1C(=O)CNc2ncc(-c3ccc(-c4nc[nH]n4)nc3C)nc21` the cell viability was 0.8. For `O=C(O)CCN1C(=O)/C(=C/c2ccc(-c3ccc([N+](=O)[O-])cc3)o2)SC1=S`, the cell viability was 0.95. `Cc1cc(N2C[C@@H](C)N[C@@H](C)C2)ncc1-c1ccc(-c2nc3c(ccn3C)c(=O)[nH]2)cc1` was tested, and the cell viability was 0.757. `COC(=O)[C@@H](N)Cc1cnc[nH]1` [Methyl L-histidinate dihydrochloride] gave a cell viability of 0.981. With `NC(=O)[C@@H]1CC[C@@H]2CN1C(=O)N2OS(=O)(=O)O` [Avibactam sodium] the cell viability was 1.05. `CN[C@@H](C)C(=O)N[C@H](C(=O)N1CCC[C@H]1C(=O)Nc1snnc1-c1ccccc1)C1CCCCC1` gave a cell viability of 1.16. Work on `CN(C)C/C=C/C(=O)Nc1ccc(C(=O)N2CCC[C@@H](Nc3ncc(Cl)c(-c4c[nH]c5ccccc45)n3)C2)cc1` yielded a cell viability of 0.437. `O=C(/C=C/c1ccc2ccc(C(F)(F)F)cc2n1)c1ccncc1` showed a cell viability of 1.06. `CN1CCN(c2cccc(Nc3nc4c(-c5ccc(S(C)(=O)=O)cc5)cccn4n3)c2)CC1` showed a cell viability of 1.12. `Nc1nccc(Oc2ccc3c(C(=O)Nc4cccc(C(F)(F)F)c4)cccc3c2)n1` gave a cell viability of 0.954. For `COc1cc2nc(N3CCN(C(=O)C4CCCO4)CC3)nc(N)c2cc1OC` (centres undefined) [Terazosin hydrochloride], the cell viability was 1.12. In the case of `CCOC(=O)N1CCC(NCCNC(=O)c2ccccc2C)CC1`, the cell viability is reported as 1.08. In the case of `CC(=O)OCC(=O)[C@@]1(O)CC[C@H]2[C@@H]3CCC4=CC(=O)CC[C@]4(C)[C@H]3C(=O)C[C@@]21C` [Cortisone acetate], the cell viability is reported as 1.26. Work on `COc1ccc(CC(=O)Nc2nc3c(s2)CCc2ccccc2-3)cc1OC` yielded a cell viability of 1.2. `CC(C)(C)c1cc(C(=O)C(C#N)=NNc2cccc(Cl)c2)no1` showed a cell viability of 1.05. `C#C[C@]1(O)CC[C@H]2[C@@H]3[C@H](C)CC4=C(CCC(=O)C4)[C@H]3CC[C@@]21C` [Tibolone] gave a cell viability of 1.17. Work on `CCc1nc(C(N)=O)c(Nc2ccc(N3CCC(N4CCN(C)CC4)CC3)c(OC)c2)nc1NC1CCOCC1` [Gilteritinib] yielded a cell viability of 0.801. Molecule `CN(C)CCCOc1nn(Cc2ccccc2)c2ccccc12` [Benzydamine hydrochloride] has a cell viability of 1. With `O=C1c2c(O)cc(O)cc2OC(c2ccc(O)c(O)c2)C1O` (centres undefined) [Taxifolin] the cell viability was 0.925. For `Nc1ccn(C[C@@H](CO)OCP(=O)(O)O)c(=O)n1` [Cidofovir], the cell viability was 0.986. For `FC(F)(F)c1ccc(/C=C/c2nc(COc3ccc(CCCCn4ccnn4)cc3)co2)cc1` [Mubritinib], the cell viability was 0.947. Molecule `NC(=O)c1ncn([C@@H]2O[C@H](CO)[C@@H](O)[C@H]2O)c1O` [Mizoribine] has a cell viability of 1.06. In the case of `Cc1cn([C@@H]2C[C@@H](O)[C@H](CO)O2)c(=O)[nH]c1=O` [Telbivudine], the cell viability is reported as 0.881. For `Cc1cc(NC(=O)c2cccc(NC(=O)/C=C/CN(C)C)c2)ccc1Nc1nccc(-c2cccnc2)n1`, the cell viability was 0.841. `CCOc1cc2ncc(C#N)c(Nc3ccc(OCc4ccccn4)c(Cl)c3)c2cc1NC(=O)/C=C/CN(C)C` [Neratinib] showed a cell viability of 0.587. `O=C(N/N=C/c1ccc([N+](=O)[O-])o1)c1ccc(O)cc1` [Nifuroxazide] gave a cell viability of 0.929. `Cn1cc(C2=C(c3ccc(Cl)cc3Cl)C(=O)NC2=O)c2ccccc21` gave a cell viability of 1.04.
